Experimental data: the supplement of paper PMC12217912
The list shows a part of the results. Sequences were assembled here from the parent chain. Values near 0.05 are background.

B1: TEV protease; numbered along this chain (parent)
chain: MGESLFKGPRDYNPISSSICHLTNESDGHTTSLYGIGFGPFIITNKHLFRRNNGTLVVQSLHGVFKVKDTTTLQQHLVDGRDMIIIRMPKDFPPFPQKLKFREPQREERICLVTTNFQTKSMSSMVSDTSCTFPSGDGIFWKHWIQTKDGQCGSPLVSTRDGFIVGIHSASNFTNTNNYFTSVPKNFMELLTNQEAQQWVSGWRLNADSVLWGGHKVFMVKPEEPFQPVKEATQL

Variants of: B1
Assay: raw area under fraction-flipped curve 0-4 h after induction (AUC4h, not background-subtracted), DNA-recorder readout of cleavage of the substrate (dimensionless); higher = more cleavage of the substrate by the protease variant
Details: temperature: 34 °C; time window: 0-4 h after rhamnose induction
Experimental: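 In vivo DNA recorder in E. coli TOP10(DE3) ΔrhaA at 34 °C. Each TEVp single-site mutant (parent TEVp 0) is paired with a single-site variant of the 7-mer TEVs (canonical ENLYFQ|S). The substrate sits between flexible linkers in a Bxb1-sfGFP-TEVs-SsrA fusion, so cleavage stabilises Bxb1 and speeds flipping of a recombination array, read by NGS. The value is the raw area under the fraction-flipped curve over 0-4 h after rhamnose induction (AUC4h), with ≥20 reads per time point. It is not background-subtracted; inactive controls average about 0.047.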
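Further: Bxb1 expression induced with 0.2% (w/v) L-rhamnose at OD600 near 0.5, cultures sampled hourly, flipped fraction per protease–substrate barcode pair counted by paired-end Illumina sequencing.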

Variant	area with substrate ENLYFQA	area with substrate ENLYFQC	area with substrate ENLYFQD	area with substrate ENLYFQE	area with substrate ENLYFQG	area with substrate ENLYFQH	area with substrate ENLYFQM	area with substrate ENLYFQN	area with substrate ENLYFQR	area with substrate ENLYFQS	area with substrate ENLYFQT	area with substrate ENLYFQV	area with substrate ENLYFQW	area with substrate ENLYFQY	area with substrate ENLYFQF	area with substrate ENLYFQI	area with substrate ENLYFQL	area with substrate ENLYFQK	area with substrate ENLYFQP	area with substrate ENLYFQQ
S182Y	0.0521	0.0531	0.0558	0.0499	0.0571	0.0454	0.0668	0.0421	0.0616	0.0577	0.0567	0.0511	0.0491	0.0684						
S182P	0.12	0.129				0.0878	0.101	0.0652		0.118	0.0743	0.0534		0.0753	0.0741					
S123R	0.0944	0.132			0.1				0.0652	0.123	0.052		0.058			0.0391	0.0656			
Y179F	0.0678	0.0908					0.0672			0.0902	0.0993					0.0548	0.0768			
Y179C	0.0524	0.0624	0.0152		0.0593	0.0617	0.0628	0.062	0.0612	0.0624	0.0621	0.0626	0.0541			0.0508	0.0559	0.0596		
S130M	0.0921	0.0839	0.101			0.0646	0.0803	0.0354		0.0931						0.056	0.0685	0.0644		
S130K	0.0683	0.0934	0.0579		0.0513	0.0796	0.0759	0.0661	0.0621	0.0907	0.0497	0.0528	0.0416	0.0604		0.0346	0.0626	0.0521	0.054	
S130H	0.123		0.0655						0.0747	0.0931		0.0649	0.0689	0.0856	0.0629			0.0668		
R160L	0.084							0.0709		0.1		0.0564								0.0918
I145M	0.0672	0.0912	0.0691			0.0789	0.0513	0.0709	0.0494	0.0767	0.0652	0.0464	0.0621	0.0575	0.0688	0.0507	0.0699	0.0435		0.0781
N178E	0.0656	0.0795			0.0556	0.0584				0.0686			0.0738			0.038	0.0435	0.0549	0.0811	
M122R	0.104						0.166			0.113	0.0811	0.0617			0.0985		0.0958	0.0599		
A196S	0.0778		0.0648		0.101	0.0779		0.0823	0.0683	0.0908	0.0736	0.0613	0.0566			0.0629	0.0636		0.0517	
Q194Y	0.093		0.073	0.0674	0.0916		0.0995		0.0701	0.106	0.068			0.0899				0.0577		
Q118I	0.108						0.106	0.0684	0.0551	0.103	0.0601		0.061	0.113			0.0701		0.0575	
Q118R	0.124			0.0664	0.0905	0.0822	0.0914		0.0649	0.11	0.0738	0.052						0.035	0.0592	
Q118D	0.0957						0.0765		0.0788	0.0978		0.061		0.0877		0.0532		0.0549	0.0756	
M125Q	0.085	0.107	0.0563	0.0578	0.0983	0.0959	0.0923	0.0812	0.063	0.103	0.0682		0.0735			0.0621	0.0683	0.0814		
M125P	0.113				0.119	0.0869	0.0866	0.0895		0.109			0.0623	0.0833		0.0617	0.0574		0.0635	
D161I	0.06	0.0594			0.0663	0.0625	0.051		0.0445	0.0541	0.0538	0.0636	0.0632	0.0391		0.0496	0.0506	0.0623	0.0539	0.0556
G150I	0.0449	0.0615				0.0669	0.0563	0.0577	0.0551	0.0575	0.0479				0.0441		0.0543	0.056		0.0571
T174N	0.12		0.0564				0.066	0.07	0.0666	0.107	0.0591		0.0746				0.0853	0.0555		0.0613
T119Y	0.127	0.105	0.0705		0.0627	0.0752		0.0806	0.038	0.0934	0.0626		0.0614	0.0695	0.0715					
V165Y	0.0292				0.0208	0.067		0.0403	0.0518	0.0524	0.054	0.0477	0.0575	0.0433	0.0494	0.0489		0.0419	0.0504	0.0498
D137I	0.135	0.118			0.102	0.0793	0.0873	0.0643	0.0519	0.102	0.0592		0.0674	0.0601	0.0759	0.0595	0.0682			0.0946
N175H	0.0712							0.0741		0.0959	0.0704		0.0635	0.06				0.0574		
N172I	0.0547	0.0585	0.03	0.0511			0.0601		0.0591	0.0607	0.0653		0.0334			0.0596	0.0547		0.0547	
Q146F	0.129	0.111				0.089	0.0904	0.0813		0.116		0.0646				0.0584		0.0609		
Q146H	0.0869		0.0671		0.0887	0.0665	0.0833	0.0722	0.0606	0.108	0.0386	0.0582	0.0866	0.0799		0.057	0.0718	0.0602	0.0587	0.0775
